This assay concerns the target T1, CD47-His (UniProt Q08722 in part, limits assumed).
T1 construct: also called target antigen CD47; not shown: His tag
Kind of assay: ELISA, CD47-His coated at 1 µg/ml, anti-human IgG HRP detection. A general note: ELISA stands for enzyme-linked immunosorbent assay.

Sequence of CD47-His (Q08722 19-141 limits assumed): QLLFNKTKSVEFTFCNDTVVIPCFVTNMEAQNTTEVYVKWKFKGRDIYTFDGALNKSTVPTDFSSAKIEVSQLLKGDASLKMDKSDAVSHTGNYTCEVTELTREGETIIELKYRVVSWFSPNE

B1: SS002M91 fusion protein (M91 fused with IgG1-FC) (Fc fusion)
chain: ELQVIQPDKSVLVAAGETATLRCTATSLLPVGPIQWFRGAGPGRQLIYNQKDGHFPRVTTASDLTKRNNMDFSINIGNITPADAGTYYCVKFRKGSPDDIEFKSGAGTELSVRAKPSL[human IgG1 Fc left out]
For the molecule B1, a half-maximal effect (EC50) was put at 0.072 nM. This lies in the picomolar range.

What is called EC50 is the midpoint of the concentration-response curve. A high value points to lower potency in that assay.

The values are drawn from patent US20210317230A1 (HANGZHOU SUMGEN BIOTECH, published 2021).
